Results published in PubChem BioAssay AID504832 (National Center for Advancing Translational Sciences (NCATS), 2011).
Out of some 310,000 compounds screened, about 18,000 (5.8%) were called active. This list was built around the results that the source calls inconclusive (neither active nor inactive); the mix of calls is not that of the screen. Calls come from the whole dose curve; as a rule, active = well fitted inhibition curve with a large enough effect; inconclusive = small, poorly fitted or top-dose-only effect, or another doubt; inactive = no such curve, though single readings can be large or run the other way. Potencies of inconclusive entries are left out as doubtful fits.
Potency is the fitted concentration of half-maximal effect; tags give direction and shape of the fitted curve.

Experiment: Primary qHTS for delayed death inhibitors of the malarial parasite plastid, 48 hour incubation
Conditions: P. falciparum luciferase growth in erythrocytes; series mostly up to 28.7 µM
Procedure, shortened: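 Here the parasites carry a stable luciferase gene and grow inside erythrocytes in Albumax-based RPMI medium with compound for one erythrocytic cycle. Activity is scored as loss of luminescent signal.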
With `c1ccc(SCCOCCn2cncn2)cc1` the Potency was “inactive”.
With `c1ccc2c(Nc3ccc(N4CCOCC4)cc3)nc(N3CCOCC3)nc2c1` the Potency was inconclusive [inhibitor, partial curve, poor fit].
With `COc1ccc(C(=O)N(CC(=O)Nc2sc(C)c(C)c2C(N)=O)C2CCCC2)cc1` the Potency was inconclusive [inhibitor, single point].
For `COc1cccc(NC(=O)c2ccc(NCCCN3CCC(C)CC3)c([N+](=O)[O-])c2)c1`, the Potency was active: 2.08 µM.
In the case of `CC(C)(C)CC(C)(C)N=C1NS(=O)(=O)c2cc([N+](=O)[O-])ccc21`, the Potency was inconclusive [inhibitor, single point].
With `COc1ccc(S(=O)(=O)N2CCN(CC(=O)c3[nH]c(C)c(C(C)=O)c3C)CC2)cc1OC` the Potency was inconclusive [inhibitor, partial curve].
For `COc1ccc(C2Nc3ccccc3C(=O)N2c2ccc(C)cc2)cc1Cn1cc([N+](=O)[O-])cn1` (stereo not drawn), the Potency was inconclusive [inhibitor, single point].
With `Cc1ccn2cc(-c3cccc(S(=O)(=O)N4CCCCC4)c3)nc2c1` the Potency was “inactive”.
With `Nc1ccc(Nc2nc(-c3cccs3)cs2)cc1` the Potency was inconclusive [inhibitor, partial curve].
With `Cc1nc2ccccc2c(C)c1CC(=O)N(CC(C)C)c1c(N)n(Cc2ccccc2)c(=O)[nH]c1=O` the Potency was inconclusive [inhibitor, partial curve].
For `CC1CCN(C(=O)CSc2nnc(CNC(=O)c3ccc(S(=O)(=O)N(C)C)cc3)o2)CC1`, the Potency was “inactive”.
With `CCCCn1c(C)c(C(=O)OCC)c2c(CN3CCOCC3)c(O)ccc21` the Potency was inconclusive [inhibitor, single point].
In the case of `C=C(C)CNC(=S)NNC(=O)CCn1c2ccc(Cl)cc2c2cc(Cl)ccc21`, the Potency was active: 2.33 µM.
With `O=C(CN1CCN(C(=O)c2ccco2)CC1)Nc1ccc(Br)cc1` the Potency was inconclusive [inhibitor, full curve, poor fit].
With `Cc1ccccc1C(=O)N1CCC(C(=O)N2CCCc3ccccc32)CC1` the Potency was inconclusive [inhibitor, single point].
With `O=S(=O)(Nc1ccc2c(c1)OCCO2)c1cccc(F)c1` the Potency was “inactive”.
For `Cc1ccc2nc(-c3cccc(Br)c3)cc(C(=O)Nn3cnnc3)c2c1`, the Potency was “inactive”.
In the case of `COc1ccccc1NC(=S)Nc1ccc2cn[nH]c2c1`, the Potency was “inactive”.
For `CC1(c2ccccc2Cl)NC(=O)N(CC(=O)c2ccc3c(c2)OCO3)C1=O` (stereo not drawn), the Potency was inconclusive [inhibitor, partial curve, poor fit].
For `COC(=O)CNC(c1ccccc1)c1cc(C)ccc1NS(=O)(=O)c1ccc(C)cc1` (stereo not drawn), the Potency was active: 9.28 µM.
With `CCOC(=O)Nc1ccc2c(c1)N(C(=O)N1CCN(C)CC1)c1ccccc1S2` the Potency was inconclusive [inhibitor, partial curve].
With `CC1CCC(NC(=O)CN(C)CC(=O)Nc2ccc(F)cc2)CC1` (stereo not drawn) the Potency was inconclusive [inhibitor, single point].
With `CC(C)OC(=O)CSc1nnc(-c2ccc(O)cc2)n1Cc1ccccc1` the Potency was inconclusive [inhibitor, single point].
For `COc1ccc(OC)c(-n2c(O)c(/C=C3\C(C)=Nc4ccccc43)c(=O)[nH]c2=O)c1`, the Potency was inconclusive [inhibitor, single point].
For `O=C1c2ccccc2NC(c2ccc(-c3cccs3)o2)N1O` (stereo not drawn), the Potency was “inactive”.
In the case of `CC(C)n1c(O)c(N=NC(=O)C2COc3ccccc3O2)c2ccccc21` (stereo not drawn), the Potency was inconclusive [inhibitor, partial curve, poor fit].
For `C/C(=N\NC(=O)c1c(C)nc2ccccn12)c1cccc([N+](=O)[O-])c1`, the Potency was “inactive”.
With `COC(C(=O)Nc1ccnn1C1CCN(Cc2ccc(Cl)s2)CC1)c1ccccc1` (stereo not drawn) the Potency was inconclusive [inhibitor, single point].
In the case of `O=C(CN1C(=O)NC2(CCCCCC2)C1=O)c1ccc(Cl)s1`, the Potency was inconclusive [inhibitor, single point].
With `CN(CC(=O)Nc1cccc(F)c1)C(=O)CCc1nc2cc(S(=O)(=O)N3CCOCC3)ccc2n1C` the Potency was inconclusive [inhibitor, partial curve].
With `CC(C)(C)c1ccc(C(=O)NC(=S)NCC2CCCO2)cc1` (stereo not drawn) the Potency was inconclusive [inhibitor, partial curve, poor fit].
With `CCCCNC(=O)c1ccccc1NS(=O)(=O)c1ccc2c(c1)OCCO2` the Potency was inconclusive [inhibitor, partial curve].
In the case of `NC(=O)COC(=O)c1ccc(-c2ccc(O)cc2)cc1`, the Potency was “inactive”.
For `Cc1ccc(-n2c(SCc3ccc([N+](=O)[O-])cc3)nc3ccccc3c2=O)cc1`, the Potency was inconclusive [inhibitor, single point].
With `CCOC(=O)c1ccc(Oc2c(C)oc3c(CN4CCN(C)CC4)c(O)ccc3c2=O)cc1` the Potency was inconclusive [inhibitor, single point].
In the case of `COc1cc2[nH]c(=O)c(C(=O)NCCCN3CCCCC3)c(O)c2cc1OC`, the Potency was inconclusive [inhibitor, single point].
With `CCC(=O)Nc1ccc(N2CCN(Cc3ccccc3F)CC2)cc1` the Potency was inconclusive [inhibitor, single point].
In the case of `COc1ccc(NC(=O)CN2c3cccc4cccc(c34)S2(=O)=O)c(OC)c1`, the Potency was inconclusive [inhibitor, single point].
In the case of `O=C(O)C1=C[C@@H](c2csc3ccccc23)C[C@@H](OCCCCO)O1`, the Potency was “inactive”.
For `COC(CNC(=O)c1cccnc1)OC`, the Potency was “inactive”.
For `CCOC(=O)c1c(-c2ccc(C)cc2)csc1NC(=O)C1CCCO1` (stereo not drawn), the Potency was inconclusive [inhibitor, single point].
With `CCN(CC)C(=O)CN(c1cccc(OC)c1)S(=O)(=O)c1ccc(C)cc1` the Potency was inconclusive [inhibitor, partial curve].
In the case of `COc1cccc(CN2CCC(Oc3ccc(C(=O)NCc4ccccn4)cc3)CC2)c1O`, the Potency was inconclusive [inhibitor, single point].
